According to US20240180912A1, “COMPOSITIONS AND METHODS FOR INHIBITING CREATINE TRANSPORT AS A TREATMENT FOR CANCER” (Inspirna, Inc., priority 2021, published 2024):
pIC50: −log10 of the molar value.

How the values were obtained:
2B6 = assay: CYP induction
MATE1 = MATE1 (Homo sapiens, UniProt Q96FL8); assay: SLC transporter inhibition
3A = assay: CYP induction
[1] = tested on: HCT-116 colon cancer cells; settings: human
solubility = assay type: physicochemical
SLC6A8 = SLC6A8 (Mus musculus, UniProt Q8VBW1); assay: in vivo d3-creatine uptake into heart tissue, LC-MS/MS; settings: ip, read-out: inhibition of tissue uptake of d3-creatine
P-gp = P-gp (Homo sapiens, UniProt P08183); assay: ABC transporter inhibition
rCYP2C8 = rCYP2C8 (Homo sapiens, UniProt P10632); assay: CYP substrate test
OATP1B1 = OATP1B1 (Homo sapiens, UniProt Q9Y6L6); assay: SLC transporter inhibition
OAT3 = OAT3 (Homo sapiens, UniProt Q8TCC7); assay: SLC transporter inhibition
CYP 1A2 = CYP 1A2 (Homo sapiens, UniProt P05177); assay: biochemical
liver hepatocytes [2] = assay: hepatocyte metabolism; settings: monkey
CYP 2 C9 = CYP 2 C9 (Homo sapiens, UniProt P11712)
rCYP2A6 = rCYP2A6 (Homo sapiens, UniProt P11509); assay: CYP substrate test
CT26 murine CRC cells = assay: CT26 subcutaneous tumor growth in syngeneic BALB/c mice; assay type: in vivo, mouse; settings: RGX-202 diet 800 mg/kg, 5-FU 50 mg/kg/week
liver hepatocytes [3] = assay: hepatocyte metabolism; settings: human
tumoral SLC6A8 = tumoral SLC6A8 (Mus musculus, UniProt Q8VBW1); assay: d3-creatine import into UN-KPC-961 tumors; settings: 800 mg/kg in the diet for 35 days
rCYP2D6 = rCYP2D6 (Homo sapiens, UniProt P10635); assay: CYP substrate test
rCYP2E1 = rCYP2E1 (Homo sapiens, UniProt P05181); assay: CYP substrate test
rCYP2J2 = rCYP2J2 (Homo sapiens, UniProt P51589); assay: CYP substrate test
tumors = assay: cell death in tumors in vivo
CYP 2E1 = CYP 2E1 (Homo sapiens, UniProt P05181); assay: biochemical
in vitro = settings: plasma
OATP1B3 = OATP1B3 (Homo sapiens, UniProt Q9NPD5); assay: SLC transporter inhibition
1A2 = assay: CYP induction
[4] = urinary excretion in DRF study; assay type: in vivo
Excerpt: The potential for biliary excretion of RGX-202 has not been evaluated.

OAT1 = OAT1 (Homo sapiens, UniProt Q4U2R8); assay: SLC transporter inhibition
liver hepatocytes [5] = assay: hepatocyte metabolism; settings: rat

Chain of rCYP2A6 (P11509 whole entry): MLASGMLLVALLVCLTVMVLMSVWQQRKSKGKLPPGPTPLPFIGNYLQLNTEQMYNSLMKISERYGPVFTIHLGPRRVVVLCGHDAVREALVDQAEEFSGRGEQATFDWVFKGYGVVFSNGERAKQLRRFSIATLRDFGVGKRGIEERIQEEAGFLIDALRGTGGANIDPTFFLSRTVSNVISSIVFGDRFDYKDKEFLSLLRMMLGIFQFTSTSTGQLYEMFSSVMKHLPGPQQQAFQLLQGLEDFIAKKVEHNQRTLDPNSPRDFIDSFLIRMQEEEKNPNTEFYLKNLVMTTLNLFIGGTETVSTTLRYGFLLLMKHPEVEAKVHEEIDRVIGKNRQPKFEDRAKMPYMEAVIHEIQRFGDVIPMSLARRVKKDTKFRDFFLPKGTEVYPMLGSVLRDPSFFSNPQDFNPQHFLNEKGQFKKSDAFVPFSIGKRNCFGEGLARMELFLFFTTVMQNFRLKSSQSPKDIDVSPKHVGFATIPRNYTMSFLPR
Chain of OATP1B1 (Q9Y6L6 whole entry): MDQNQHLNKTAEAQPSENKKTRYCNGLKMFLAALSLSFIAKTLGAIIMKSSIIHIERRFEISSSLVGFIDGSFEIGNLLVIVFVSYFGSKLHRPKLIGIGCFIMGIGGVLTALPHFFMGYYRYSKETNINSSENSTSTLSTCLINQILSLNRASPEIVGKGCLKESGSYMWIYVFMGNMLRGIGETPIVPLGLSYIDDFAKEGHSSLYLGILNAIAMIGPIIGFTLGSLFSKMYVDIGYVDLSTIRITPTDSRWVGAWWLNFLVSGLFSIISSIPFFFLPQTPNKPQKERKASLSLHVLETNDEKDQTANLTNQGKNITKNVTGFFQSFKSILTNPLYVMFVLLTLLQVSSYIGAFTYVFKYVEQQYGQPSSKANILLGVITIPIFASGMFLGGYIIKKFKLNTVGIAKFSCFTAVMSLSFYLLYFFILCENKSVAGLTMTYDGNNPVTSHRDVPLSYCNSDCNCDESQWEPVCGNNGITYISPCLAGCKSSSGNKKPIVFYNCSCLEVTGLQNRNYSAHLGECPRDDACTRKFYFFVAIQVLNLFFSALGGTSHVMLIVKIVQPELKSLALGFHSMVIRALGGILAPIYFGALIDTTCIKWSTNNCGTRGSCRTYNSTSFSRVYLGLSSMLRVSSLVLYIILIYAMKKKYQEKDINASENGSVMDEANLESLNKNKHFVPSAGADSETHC
Chain of rCYP2E1 (P05181 whole entry): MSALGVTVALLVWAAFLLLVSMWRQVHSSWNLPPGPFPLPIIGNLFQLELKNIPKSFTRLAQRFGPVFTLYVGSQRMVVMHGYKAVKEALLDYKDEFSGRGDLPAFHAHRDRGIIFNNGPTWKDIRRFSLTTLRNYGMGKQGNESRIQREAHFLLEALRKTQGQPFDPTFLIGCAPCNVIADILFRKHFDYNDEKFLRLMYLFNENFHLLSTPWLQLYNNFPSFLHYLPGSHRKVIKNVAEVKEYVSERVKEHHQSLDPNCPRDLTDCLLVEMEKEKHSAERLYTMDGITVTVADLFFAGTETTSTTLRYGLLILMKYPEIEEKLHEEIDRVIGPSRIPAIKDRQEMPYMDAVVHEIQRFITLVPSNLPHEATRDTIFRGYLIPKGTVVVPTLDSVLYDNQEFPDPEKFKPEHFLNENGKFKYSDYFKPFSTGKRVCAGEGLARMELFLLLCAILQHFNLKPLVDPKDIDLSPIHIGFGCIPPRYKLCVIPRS
Chain of CYP 2E1 (P05181 whole entry): as above
Chain of SLC6A8 (Q8VBW1 whole entry): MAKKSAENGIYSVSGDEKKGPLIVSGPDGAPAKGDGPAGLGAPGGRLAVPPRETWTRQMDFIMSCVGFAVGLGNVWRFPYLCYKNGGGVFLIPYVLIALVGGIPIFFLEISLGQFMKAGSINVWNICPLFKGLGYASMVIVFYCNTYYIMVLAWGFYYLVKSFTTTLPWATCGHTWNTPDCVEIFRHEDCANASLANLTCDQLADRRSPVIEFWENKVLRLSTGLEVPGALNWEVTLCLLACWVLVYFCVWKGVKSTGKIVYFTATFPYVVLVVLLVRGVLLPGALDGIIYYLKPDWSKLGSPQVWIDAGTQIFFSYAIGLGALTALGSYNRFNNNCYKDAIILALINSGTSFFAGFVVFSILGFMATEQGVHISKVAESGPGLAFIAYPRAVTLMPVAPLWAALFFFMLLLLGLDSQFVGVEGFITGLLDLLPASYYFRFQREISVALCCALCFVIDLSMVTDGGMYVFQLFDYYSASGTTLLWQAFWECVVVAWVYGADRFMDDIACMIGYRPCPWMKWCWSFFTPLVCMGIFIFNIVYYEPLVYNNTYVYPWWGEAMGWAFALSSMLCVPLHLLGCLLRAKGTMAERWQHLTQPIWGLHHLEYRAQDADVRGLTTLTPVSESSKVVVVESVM
Chain of tumoral SLC6A8 (Q8VBW1 whole entry): as above
Chain of rCYP2J2 (P51589 whole entry): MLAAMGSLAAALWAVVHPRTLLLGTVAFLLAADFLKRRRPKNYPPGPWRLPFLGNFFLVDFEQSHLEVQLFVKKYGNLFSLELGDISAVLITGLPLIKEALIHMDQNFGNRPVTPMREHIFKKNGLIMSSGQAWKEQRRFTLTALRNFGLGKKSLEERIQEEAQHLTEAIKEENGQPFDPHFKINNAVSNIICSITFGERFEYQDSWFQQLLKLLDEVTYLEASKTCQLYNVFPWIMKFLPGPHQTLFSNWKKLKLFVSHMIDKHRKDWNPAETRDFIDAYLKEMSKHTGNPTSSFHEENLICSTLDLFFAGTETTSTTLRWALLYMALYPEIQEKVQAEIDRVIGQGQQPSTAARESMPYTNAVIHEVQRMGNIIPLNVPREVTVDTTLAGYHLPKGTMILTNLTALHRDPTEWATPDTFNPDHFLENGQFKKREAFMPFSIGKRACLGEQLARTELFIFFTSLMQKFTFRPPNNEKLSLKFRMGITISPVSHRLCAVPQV
Chain of CYP 2 C9 (P11712 whole entry): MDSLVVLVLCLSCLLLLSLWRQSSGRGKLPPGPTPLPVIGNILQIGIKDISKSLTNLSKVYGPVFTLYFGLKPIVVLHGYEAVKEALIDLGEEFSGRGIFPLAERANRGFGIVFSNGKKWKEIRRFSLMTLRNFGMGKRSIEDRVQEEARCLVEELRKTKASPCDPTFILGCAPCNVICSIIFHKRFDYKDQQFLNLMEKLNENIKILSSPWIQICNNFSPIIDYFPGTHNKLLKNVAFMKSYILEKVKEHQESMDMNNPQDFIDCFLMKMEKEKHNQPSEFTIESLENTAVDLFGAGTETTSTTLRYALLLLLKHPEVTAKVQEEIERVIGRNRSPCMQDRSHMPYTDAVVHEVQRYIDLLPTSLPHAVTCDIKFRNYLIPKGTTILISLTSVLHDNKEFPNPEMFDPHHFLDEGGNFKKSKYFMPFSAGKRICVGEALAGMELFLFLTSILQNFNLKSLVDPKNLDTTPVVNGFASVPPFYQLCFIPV
Chain of MATE1 (Q96FL8 whole entry): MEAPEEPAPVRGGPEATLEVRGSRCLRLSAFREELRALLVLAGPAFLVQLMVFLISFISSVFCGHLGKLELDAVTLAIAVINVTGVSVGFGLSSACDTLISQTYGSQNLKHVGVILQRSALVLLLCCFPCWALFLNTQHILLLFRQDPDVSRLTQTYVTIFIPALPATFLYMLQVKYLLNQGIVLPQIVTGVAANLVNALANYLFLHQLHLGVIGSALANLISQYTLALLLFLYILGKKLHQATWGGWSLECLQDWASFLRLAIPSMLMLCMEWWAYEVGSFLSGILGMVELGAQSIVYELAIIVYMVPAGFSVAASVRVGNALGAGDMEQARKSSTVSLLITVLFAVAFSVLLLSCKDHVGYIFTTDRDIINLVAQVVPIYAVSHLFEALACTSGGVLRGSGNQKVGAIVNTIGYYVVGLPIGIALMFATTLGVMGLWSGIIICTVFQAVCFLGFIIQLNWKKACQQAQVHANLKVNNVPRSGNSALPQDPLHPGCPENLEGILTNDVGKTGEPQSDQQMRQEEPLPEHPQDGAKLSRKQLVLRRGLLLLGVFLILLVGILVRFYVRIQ
Chain of rCYP2C8 (P10632 whole entry): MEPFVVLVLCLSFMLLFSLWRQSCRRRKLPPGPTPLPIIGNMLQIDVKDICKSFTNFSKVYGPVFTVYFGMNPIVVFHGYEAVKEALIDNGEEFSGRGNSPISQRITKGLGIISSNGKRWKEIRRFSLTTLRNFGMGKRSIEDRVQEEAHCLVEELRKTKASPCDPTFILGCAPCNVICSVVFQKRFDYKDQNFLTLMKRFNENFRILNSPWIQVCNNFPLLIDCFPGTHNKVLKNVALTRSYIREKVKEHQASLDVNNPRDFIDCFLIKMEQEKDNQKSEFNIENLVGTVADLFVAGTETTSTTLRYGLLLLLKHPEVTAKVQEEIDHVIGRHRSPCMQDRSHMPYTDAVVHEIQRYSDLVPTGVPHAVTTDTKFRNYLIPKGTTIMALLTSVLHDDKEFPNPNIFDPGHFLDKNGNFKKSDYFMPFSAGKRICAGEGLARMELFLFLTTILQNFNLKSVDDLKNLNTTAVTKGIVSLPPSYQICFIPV
Chain of OAT3 (Q8TCC7 whole entry): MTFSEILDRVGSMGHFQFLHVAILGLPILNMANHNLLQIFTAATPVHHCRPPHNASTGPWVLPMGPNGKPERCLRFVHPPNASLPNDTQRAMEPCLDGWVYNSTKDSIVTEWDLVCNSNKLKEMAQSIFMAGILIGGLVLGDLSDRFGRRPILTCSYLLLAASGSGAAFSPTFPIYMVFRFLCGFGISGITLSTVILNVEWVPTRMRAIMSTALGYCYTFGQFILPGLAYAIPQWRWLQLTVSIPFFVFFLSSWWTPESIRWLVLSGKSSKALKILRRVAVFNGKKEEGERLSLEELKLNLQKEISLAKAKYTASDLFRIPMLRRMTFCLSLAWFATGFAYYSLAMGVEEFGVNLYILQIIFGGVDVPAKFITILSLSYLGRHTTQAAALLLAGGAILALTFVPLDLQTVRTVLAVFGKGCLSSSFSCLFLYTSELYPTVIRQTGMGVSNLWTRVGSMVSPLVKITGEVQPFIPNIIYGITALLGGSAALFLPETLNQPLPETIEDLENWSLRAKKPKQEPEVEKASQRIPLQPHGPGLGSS

With N=C(N)NCCC(=O)O [RGX-202, β-Guanidinoproprionic acid] the “induction of 2B6” value (2B6) was “no induction”, the “inhibitor of MATE1” value (MATE1) was “not an inhibitor” and the “induction of 3A” value (3A) was “no induction”. For the same compound, the “reduction of cell viability” value [1] was 15-35%, the “solubility in organic solvents” value (solubility) was “low solubility” and the solubility (solubility; water) was > 50 mg/mL. For the same compound, the inhibition at 500 mg/kg (SLC6A8) was ≤ 75%, the “inhibitor of P-gp” value (P-gp) was “not an inhibitor” and the “induced cell death in colon cancer cells in vitro” value (colon cancer cells) was ~7 fold. The “reduced cell viability in vitro” value (colon cancer cells) was 15-60%, the “substrate of rCYP2C8” value (rCYP2C8) was “not a substrate” and the “inhibitor of OATP1B1” value (OATP1B1) was “not an inhibitor”. For the same compound, the “inhibitor of OAT3” value (OAT3) was “not an inhibitor”, the pIC50 (CYP 1A2) was < 4.00 and the metabolism by hepatocytes (liver hepatocytes [2]) was “not metabolized”. The pIC50 (CYP 2 C9) was < 4.00, the “substrate of rCYP2A6” value (rCYP2A6) was “not a substrate” and the tumor growth inhibition (CT26 murine CRC cells) was 66%. For the same compound, the metabolism by hepatocytes (liver hepatocytes [3]) was “not metabolized”, the “suppression of tumoral d3-creatine import” value (tumoral SLC6A8) was 50% and the “substrate of rCYP2D6” value (rCYP2D6) was “not a substrate”. For the same compound, the “substrate of rCYP2E1” value (rCYP2E1) was “not a substrate”, the “substrate of rCYP2J2” value (rCYP2J2) was “not a substrate” and the “induced cell death in tumors in vivo” value (tumors) was 5-15 fold. For the same compound, the pIC50 (CYP 2E1) was < 4.00, the fraction unbound (in vitro) was 0.604 to 0.685 and the “inhibitor of OATP1B3” value (OATP1B3) was “not an inhibitor”. For the same compound, the “induction of 1A2” value (1A2) was “no induction”, the “amount found in the urine” value ([4]; dog) was “significant amounts” and the “amount found in the urine” value ([4]; rat) was “significant amounts”. The “inhibitor of OAT1” value (OAT1) was “not an inhibitor” and the metabolism by hepatocytes (liver hepatocytes [5]) was “not metabolized”.
